The text below walks through data of the supplement of paper PMC10681739.

Over roughly 4,000 sequences, “arbitrary fluorescence units” has its median near 830; the highest 2% begin near 6,500. Most of the strongest results are missing from this list.
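Note: Full-length recombinant human RUNX1 bound to double-stranded DNA microarray spots, detected with an Alexa488-labelled secondary antibody after the anti-RUNX1 primary, read as scanned spot fluorescence.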

This test has as its target RUNX1 (UniProt Q01196). In words: RUNX1 binding intensity (PBM fluorescence), RUNX1 alone (arbitrary fluorescence units); higher = stronger binding. To be noted: RUNX1 concentration 2 nM; ETS1 concentration 0 nM. How it is done: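 gcPBM on 36-bp genomic-derived probes (partner site mutated) containing one RUNX1 site and no ETS1 site. Recombinant human RUNX1 (2 nM) was incubated alone or with ETS1 (25 nM) and detected by anti-RUNX1 antibody fluorescence. Values are medians over 4 replicate spots (not normalised). The probes sit in constant array flanks that are not printed.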
Sequence of UniProt Q01196 (Q01196 whole entry): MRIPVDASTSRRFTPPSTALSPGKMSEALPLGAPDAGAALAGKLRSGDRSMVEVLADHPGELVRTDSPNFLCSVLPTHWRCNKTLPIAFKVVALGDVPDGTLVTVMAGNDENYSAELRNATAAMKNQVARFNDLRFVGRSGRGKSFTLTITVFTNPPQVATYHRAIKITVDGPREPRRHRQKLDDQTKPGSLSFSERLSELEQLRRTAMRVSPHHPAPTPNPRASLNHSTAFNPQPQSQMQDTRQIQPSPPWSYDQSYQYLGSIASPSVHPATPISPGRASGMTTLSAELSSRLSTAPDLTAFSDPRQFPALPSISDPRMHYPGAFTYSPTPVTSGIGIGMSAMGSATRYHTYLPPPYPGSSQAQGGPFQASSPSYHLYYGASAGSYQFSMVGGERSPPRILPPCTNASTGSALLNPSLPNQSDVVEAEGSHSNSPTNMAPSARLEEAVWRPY
The sequence GAATGCGGGGGTGGGCACCCTATTCTCACCTCCCCT showed an RUNX1 binding intensity of 914.

The sequence TCATAAGGCAGTGGAGTGTAGTAACCACAGGCCCCG gave an RUNX1 binding intensity of 893.

For the sequence CCGTGGATGGAGACGCTGCCAACCGCAACAGAAATG, the RUNX1 binding intensity came out at 2340.

GAAGTGGACACGGGACTCGGCTGCGGCTCCATGGTC showed an RUNX1 binding intensity of 764.

GGGGCCTGTGGTGAACTGGAGAGGAGATGCTGCATT displayed an RUNX1 binding intensity of 784.

The sequence CCCCAGCGGTTTTCCAGCGTACGCACAAGTGCCGCC showed an RUNX1 binding intensity of 982.

Consider CAACTCCCGGGGCCGGTTGCCTGGCAACCGCAGGAG, for which the RUNX1 binding intensity was 1000.

The sequence GGCGGCGGGCTGCGGGCGCGGCCGTACGGGAGTTCG returned an RUNX1 binding intensity of 859.

Take CCTAAAACCCAGTTTCGGGACCCACCGCTGAAGGTC: the RUNX1 binding intensity stood at 824.

Take TCTGCGGGACTAAGAGGCGGGGAAAGGGAGCGAAAG: the RUNX1 binding intensity is 731.

In turn, ACAGTGTCCTTGCTGTGATGTCAGCCCCCGCCGCAG showed an RUNX1 binding intensity of 719.

Turning to AGAGGCAGTAAATTCTAACAGTGGAAACCACAGATT, the RUNX1 binding intensity worked out at 855.

CTCACCGCAGGCCTGTGCTGGGGGTGCTCCCTGCTC registered an RUNX1 binding intensity of 3770.

Take GTGTGAAGGCAGTGTGAGATCAAACCACAGCTGGGT: the RUNX1 binding intensity came to 815.

GGCCTGCGGCTGCTTCAGGCTCTCGGGAATGACGTT yielded an RUNX1 binding intensity of 629.

As for TGACGGTTACCGCTTCAGGTCAGGACCGGGAGTGCC, the RUNX1 binding intensity is 677.

In the case of ATGTTCTTTGTGGTATCGCTTCGTGTGTCCTAGCAC, the RUNX1 binding intensity stood at 2770.

Consider ACCATAAGGACCGTAAGCAGAGACCACACTGGTGCT, for which the RUNX1 binding intensity was found to be 816.

Sequence CCATAGCGACCGCGGCCGAGCGAACCGGGAATCGGC yielded an RUNX1 binding intensity of 791.

The sequence CTGCGTCCCGAAAGGAGCGAGCTTGCGGAGCGTGAA came in with an RUNX1 binding intensity of 718.

For the sequence ACGTCATCCCGCAGGGCTGGCGCGCCCGGCGCAGTC, the RUNX1 binding intensity came out at 779.

In the case of CTGTCAGCCCCGCAGCCCCTGCTCCCTGGCTGGCTG, the RUNX1 binding intensity was 805.

In turn, GGTGAAATTAACCACAGAAATAATGGGAACTAGAGA had an RUNX1 binding intensity of 4660.

Take TAACCCTGTTTTACCACATCATTTCGTGCTGAAGAG: the RUNX1 binding intensity is 1280.

On to AAAGGCCGAAGGGGGGCAGGGAACCCACAAAACAGA, for which the RUNX1 binding intensity stood at 877.

GCCTGGTACCACTAAAAAGATCAACACCGGGAATAA displayed an RUNX1 binding intensity of 863.

With AGGCAAACAGCATGTTCCTCTCCCACATGCAGACTT, the RUNX1 binding intensity was 755.

For GCTTTCTGTGGTGACTGGGCGCTTTCTGTTTTCTCA, the RUNX1 binding intensity was determined as 1100.

The sequence ACCCCCACCCCCGCATTCTTGTGCGAGGAGGTCATG gave an RUNX1 binding intensity of 757.

Take TGCACCTCCGTTTGGGCAGGGCTGCGGGCCGGAGGG: the RUNX1 binding intensity amounted to 683.

As to CAGATTCAAGCAAGTGGTGGTGGTTTGGTGTCGTTG, the RUNX1 binding intensity stood at 775.

Regarding AGGTCTGTGTGTGCCACAGAGAGGAGGGGGGCAACC, the RUNX1 binding intensity was 824.

Sequence CGACCCGGGGATCTGAGCGGAGTCTGCGGCTGCGCT registered an RUNX1 binding intensity of 702.

GCAGTTCATACCACAAAACCCATCGTTTCGTGCAAC had an RUNX1 binding intensity of 1500.

In turn, CCTGTCCCCCAGCCTGGGGTCCCGCAGCCTCGCTCT had an RUNX1 binding intensity of 873.

AACAGACAGGGTGTGGCCTCTGCCAAAACCACCATC returned an RUNX1 binding intensity of 716.

AGCTCCACCTGAAACGGCCTGGCCGCAGCCAATCAG came in with an RUNX1 binding intensity of 902.

GTGCGGCGGGAATCGCGTTCCCCGGCAACCGCGCCC: the RUNX1 binding intensity was 767.

On to GATGCACCTCCGCGGGAGGCAAGCGGTTGCCCTGGG, for which the RUNX1 binding intensity was 694.

In turn, GACCTTCACCCACAAGAACCACCTCCTCTCAGTAAA registered an RUNX1 binding intensity of 1950.

In turn, TGGAGCCGGGGAGACGGCCAAGGTTGCGGGAGTCTC came in with an RUNX1 binding intensity of 649.

The sequence CCCTTTCTGTGAGGGAGGTTCCAGTTCCCACAGCGG returned an RUNX1 binding intensity of 742.

Sequence CCCTTGCTGCCCCCATGGCTCCCCTGAGGTTTTTCG came in with an RUNX1 binding intensity of 1350.

Regarding GATGACGTCACCACAGTAAGACAACAGCATACCGCT, the RUNX1 binding intensity worked out at 835.

GCACACTGGAACTCACACCTGAAACCACAGAACCAA showed an RUNX1 binding intensity of 1660.

AGCGTCTATCTCCTCCGACTGCGGCGCGGCTGATAC yielded an RUNX1 binding intensity of 712.

For the sequence GAAGGCAGCCCGGTCACCTTTCTTGGCCCGCAGAGT, the RUNX1 binding intensity turned out to be 673.

TCGGCACTGAAGGGAGGCACGAAACCGCGAGTGGAG had an RUNX1 binding intensity of 825.

TGCAGGGAGCGCCCACAAAGGGAGGAGGTCGCCGGC displayed an RUNX1 binding intensity of 713.

GCGGCCGGGATCTGGAGGGTGAGCGCTGTGGGCAGC: the RUNX1 binding intensity was 663.

As to AGGCGCGGTATTAGGCGGACGAGCGAAAGTGGCTGG, the RUNX1 binding intensity worked out at 777.

Take GTTGCACGAAACGATGGGTTTTGTGGTATGAACTGC: the RUNX1 binding intensity turned out to be 829.

Turning to GTCCCCGCGGTGTCACAGCAATAGCCGTTCTTTGAT, the RUNX1 binding intensity stood at 920.

With CGAGAAGGAGGTGGTCAAGGAACGAAAGCCGGGAGG, the RUNX1 binding intensity was determined as 753.

The sequence GCGGGAGTGCGGTCTGTGCCGTTCGGGCCAGGAGTT yielded an RUNX1 binding intensity of 1340.

For GCCCCCAGCCCCGCAGCCTGGCTTTCTTCATGCTCG, the RUNX1 binding intensity was determined as 933.

On to CCCCTTCATACGCCTCTCTCTCACCGCGCCGCTCCC, for which the RUNX1 binding intensity amounted to 2190.

In turn, TCCCCTCTACAGCCACAAGAATGGGAACTGGCTTGT had an RUNX1 binding intensity of 808.

Consider TTGTACTCTGTGGTTTCATTTCGTGCCCGTAAATGC, for which the RUNX1 binding intensity stood at 3260.

The sequence CCCGACTGCCGCCGCTGGTGGCCACCCGCAGGTAGT had an RUNX1 binding intensity of 775.

TTATGTGGTAGGTGAGGTAAAGAAGGCAGTGGAGAA displayed an RUNX1 binding intensity of 807.

For the sequence CGATTCTGGATTGGTCCAATTCCAGCGCCGCAGCCC, the RUNX1 binding intensity worked out at 830.

Regarding GACAGTTTTCGGGCCTAGTTTGCGGCTGCTCCTGCC, the RUNX1 binding intensity amounted to 891.

In turn, CGACGCGCGGCAGGAGTTCGCGCGACGACCGCGGGG displayed an RUNX1 binding intensity of 692.

As for ACTCTGCGGCCCAGCTGCTTCTGTGCACAGGCAATA, the RUNX1 binding intensity was found to be 791.

For GAGAACTTTCGGTGCGCTCCCCGGGACTGCGGTCCC, the RUNX1 binding intensity was 697.

Turning to CTCCAAGCCCACAGAGCACCCCTTGCTGCCCGGACA, the RUNX1 binding intensity came to 960.

In turn, GGCGCCGCGGCAATCTGTACACACCGCAGCGCGGCC showed an RUNX1 binding intensity of 837.

Sequence GGCGGTGACCGTAAGAGCTGAGTCACCGCAGGCGAC registered an RUNX1 binding intensity of 765.

Sequence CACCCGCCTCTACCCGCGGCCCCGGGAGCTCCTTAA displayed an RUNX1 binding intensity of 1090.

Regarding CCTTAGCACAGACCACCATCTACGGGAATTCCTAAG, the RUNX1 binding intensity came out at 912.

In turn, CAAACATGTGGTCTCCGAGCACGAAAATGCTAAAAT had an RUNX1 binding intensity of 816.

Turning to GAGGCCGCAAGGAGACAGAACTACACCTCCTCCGTC, the RUNX1 binding intensity came to 823.

Regarding AGTGAGCTTCGTCCTGAGGCCTGAGGCAACCACAGG, the RUNX1 binding intensity turned out to be 669.

CCCTGGACGGGAATCGGCGGCCAGATCCGCAAGCCC showed an RUNX1 binding intensity of 718.

As to CCTGGGGGGCCGTAAGCCCCGCTGCGGCCCCAGCCC, the RUNX1 binding intensity is 830.

In turn, AGAAACCGCTGGGCGGAGCAGCGGGACGAAGCTGCA came in with an RUNX1 binding intensity of 667.

For TAGGGGCTGCGGGTCCGGGCGAAAGTGGGGCAGGCG, the RUNX1 binding intensity amounted to 634.

Regarding CGGCGCGGCGCACGTTGCTGCGGTAGGACGTGCCCG, the RUNX1 binding intensity was found to be 874.

The sequence AATATGCTGTATGTCATGCTTAAAAAGCCACAAAAC yielded an RUNX1 binding intensity of 832.
